# In ChEMBL document CHEMBL1961873, “Compounds: GSK PKIS; Assays: Nanosyn kinase panel” (2012):
# For part of these data: What follows is the remainder of the data, with few or none of the strong results. The list shows a part of the results, in another mix than the full data.
# Columns and labels:
# [1] = target: Casein kinase I isoform gamma-2 (Homo sapiens) (UniProt P78368); conditions: at 1 µM
# [2] = target: Casein kinase I isoform gamma-3 (Homo sapiens) (UniProt Q9Y6M4); conditions: at 0.1 µM
# Sequence of UniProt Q9Y6M4 (Q9Y6M4 whole entry, looked up, canonical isoform): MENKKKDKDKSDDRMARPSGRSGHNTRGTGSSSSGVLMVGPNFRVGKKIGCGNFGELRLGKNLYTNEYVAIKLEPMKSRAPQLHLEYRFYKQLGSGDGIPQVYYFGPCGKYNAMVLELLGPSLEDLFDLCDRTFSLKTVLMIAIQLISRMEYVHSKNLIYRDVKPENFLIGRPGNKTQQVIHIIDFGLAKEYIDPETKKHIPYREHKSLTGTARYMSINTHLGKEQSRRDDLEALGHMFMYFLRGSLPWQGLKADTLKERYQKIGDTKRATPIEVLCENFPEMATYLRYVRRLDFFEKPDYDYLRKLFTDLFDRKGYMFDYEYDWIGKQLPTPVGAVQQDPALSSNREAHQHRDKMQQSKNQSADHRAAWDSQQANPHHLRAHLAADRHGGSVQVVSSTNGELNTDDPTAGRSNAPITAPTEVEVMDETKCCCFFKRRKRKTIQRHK
# [3] = target: Casein kinase I isoform gamma-3 (Homo sapiens) (UniProt Q9Y6M4); conditions: at 1 µM
# [4] = target: Cyclin-dependent kinase 1 (Homo sapiens) (UniProt P06493); conditions: at 0.1 µM
# Sequence of UniProt P06493 (P06493 whole entry, looked up): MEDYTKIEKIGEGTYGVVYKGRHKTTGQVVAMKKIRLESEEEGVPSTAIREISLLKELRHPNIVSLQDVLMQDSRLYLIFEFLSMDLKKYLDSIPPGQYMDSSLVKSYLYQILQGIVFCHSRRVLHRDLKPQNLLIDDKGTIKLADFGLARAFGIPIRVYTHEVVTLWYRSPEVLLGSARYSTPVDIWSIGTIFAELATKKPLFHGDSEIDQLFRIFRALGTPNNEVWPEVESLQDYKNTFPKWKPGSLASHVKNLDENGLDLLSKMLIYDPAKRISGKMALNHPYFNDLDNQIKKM
# [5] = target: Cyclin-dependent kinase 1 (Homo sapiens) (UniProt P06493); conditions: at 1 µM
# [6] = target: Cyclin-dependent kinase 2 (Homo sapiens) (UniProt P24941); conditions: at 0.1 µM
# [7] = target: Cyclin-dependent kinase 2 (Homo sapiens) (UniProt P24941); conditions: at 1 µM
# [8] = target: Cyclin-dependent kinase 2 (Homo sapiens) (UniProt P24941); conditions: at 0.1 µM; remark: listed apart in the source
# [9] = target: Cyclin-dependent kinase 2 (Homo sapiens) (UniProt P24941); conditions: at 1 µM; remark: listed apart in the source
# [10] = target: CDK3/Cyclin E (Homo sapiens) (UniProt P24864+Q00526); conditions: at 0.1 µM;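 note: reported percentages are mean inhibition values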
# Sequence of UniProt P24864 (P24864 whole entry, looked up): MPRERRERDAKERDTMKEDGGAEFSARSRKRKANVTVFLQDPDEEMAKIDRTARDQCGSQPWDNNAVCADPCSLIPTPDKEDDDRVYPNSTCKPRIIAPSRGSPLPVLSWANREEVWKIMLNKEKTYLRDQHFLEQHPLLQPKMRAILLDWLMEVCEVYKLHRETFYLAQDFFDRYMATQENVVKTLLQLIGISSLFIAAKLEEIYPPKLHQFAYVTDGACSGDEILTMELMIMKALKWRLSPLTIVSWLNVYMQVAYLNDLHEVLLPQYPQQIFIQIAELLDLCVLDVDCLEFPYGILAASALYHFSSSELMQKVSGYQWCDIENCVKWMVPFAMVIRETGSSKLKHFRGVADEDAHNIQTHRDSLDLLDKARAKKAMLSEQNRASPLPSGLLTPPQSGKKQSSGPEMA
# Sequence of UniProt P24864 (Q00526 whole entry, looked up): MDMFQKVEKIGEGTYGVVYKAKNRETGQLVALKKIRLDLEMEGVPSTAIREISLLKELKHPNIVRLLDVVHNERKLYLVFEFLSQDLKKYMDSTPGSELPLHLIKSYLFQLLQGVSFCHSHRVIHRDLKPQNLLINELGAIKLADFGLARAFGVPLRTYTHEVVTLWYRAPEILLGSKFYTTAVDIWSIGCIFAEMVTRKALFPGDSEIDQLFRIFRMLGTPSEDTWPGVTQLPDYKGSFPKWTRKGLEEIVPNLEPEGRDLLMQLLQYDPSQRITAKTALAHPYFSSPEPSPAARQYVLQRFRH
# Sequence of UniProt P78368 (P78368 whole entry, looked up, canonical isoform): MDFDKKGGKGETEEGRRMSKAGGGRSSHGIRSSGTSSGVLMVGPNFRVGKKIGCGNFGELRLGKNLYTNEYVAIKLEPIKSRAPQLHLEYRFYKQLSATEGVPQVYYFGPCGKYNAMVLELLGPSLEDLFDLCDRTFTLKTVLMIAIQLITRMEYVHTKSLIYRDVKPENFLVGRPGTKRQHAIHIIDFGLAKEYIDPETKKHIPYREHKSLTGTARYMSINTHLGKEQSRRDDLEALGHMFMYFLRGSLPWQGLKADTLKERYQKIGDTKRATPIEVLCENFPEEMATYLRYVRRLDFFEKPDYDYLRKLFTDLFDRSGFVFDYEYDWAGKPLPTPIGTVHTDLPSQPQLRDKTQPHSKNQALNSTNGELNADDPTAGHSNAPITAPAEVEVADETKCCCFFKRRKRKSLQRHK
Structure (SMILES),inhibition [1] [%],inhibition [2] [%],inhibition [3] [%],inhibition [4] [%],inhibition [5] [%],inhibition [6] [%],inhibition [7] [%],inhibition [8] [%],inhibition [9] [%],inhibition [10] [%]
Cc1cccc(Oc2nccc(-c3c(-c4ccc(F)cc4)ncn3C3CCNCC3)n2)c1C,8.38,3.94,15.4,1.08,3.9,4.39,6.7,4.46,6.04,-0.24
O=C1NC(=O)C(c2cccc([N+](=O)[O-])c2)=C1Nc1cc(Cl)c(O)c(Cl)c1,1.13,1.54,2.61,0.93,3.94,0.41,4.41,0.63,3.66,0.47
NC(=O)CCc1ccccc1Oc1nccc(-c2c(-c3ccc(F)cc3)ncn2C2CCNCC2)n1,-0.2,0.77,1.23,1.05,1.24,2.44,0.11,1.61,0.62,1.96
CS(=O)(=O)c1ccc(Oc2nccc(-c3c(-c4ccc(F)cc4)ncn3C3CCNCC3)n2)cc1,4.83,2.91,4.08,0.13,-1.68,0.67,1.67,0.53,1.85,-1.77
Fc1ccc(-c2ncn(C3CCNCC3)c2-c2ccnc(Oc3cccc(F)c3)n2)cc1,6.47,2.68,7.42,1.81,-0.11,2.74,1.69,2.65,5.6,-2.13
O=C1NC(=O)C(c2ccccc2Cl)=C1Nc1cc(Cl)c(O)c(Cl)c1,3.59,3.24,3.77,0.18,3.95,1.75,4.91,3.39,6.65,0.83
O=C(O)c1ccc(Oc2nccc(-c3c(-c4ccc(F)cc4)ncn3C3CCNCC3)n2)cc1,6.06,6.15,7.57,2.95,1.14,3.34,3.24,1.44,2.97,-1.93
O=C1NC(=O)C(c2ccccc2)=C1Nc1ccccc1,13.4,2.44,4.27,1.85,8.16,3.16,13.2,7.06,11.8,5.51
Fc1ccc(-c2ncn(C3CCNCC3)c2-c2ccnc(Oc3cccc(C(F)(F)F)c3)n2)cc1,8.41,–,18.4,1.02,1.41,3.4,2.91,2.94,3.74,0.01
Fc1ccc(Oc2nccc(-c3c(-c4ccc(F)cc4)ncn3C3CCNCC3)n2)cc1,2.77,0.63,2.01,-0.91,-1.43,-0.09,-1.09,-0.76,0.82,-3.31
COc1ccccc1C1=C(Nc2ccccc2)C(=O)NC1=O,2.19,2.41,3.26,3.22,20.8,3.35,25.9,5.24,19.7,4.74
CC(C)(C)c1ccc(Oc2nccc(-c3c(-c4ccc(F)cc4)ncn3C3CCNCC3)n2)cc1,20.3,8.9,37.1,2.5,4.39,2.76,2.67,4.72,–,-1.72
Fc1ccc(-c2ncn(C3CCNCC3)c2-c2ccnc(Oc3ccc(Cl)cc3)n2)cc1,2.65,-0.22,7.47,1.32,0.7,2.1,1.92,-0.29,1.19,0.11
COc1ccccc1Oc1nccc(-c2c(-c3ccc(F)cc3)ncn2C2CCNCC2)n1,7.18,3.7,11.1,2,5.6,3.78,4.53,6.32,8.92,-1.17
